Measurements published in PubChem BioAssay (Tox21).
Values joined by “and” are separate entries in the source; they are usually repeats but may differ in a detail not shown here. Equal entries are not always repeated. This list was built around the results that the source calls inconclusive (neither active nor inactive); the mix of calls is not that of the screen. A potency beside an inconclusive call is a rough fit, not a confirmed value. Active and inactive are the calls of the source. Calls come from the whole dose curve; as a rule, active = well fitted curve in the direction sought with a large enough effect in the repeat runs; inconclusive = weak or mixed curves; inactive = no such curve, though single readings can be large; an effect the other way counts as inactive or inconclusive.

Tests used:
[1] = biological target: Cytochrome P450 1A2 (Homo sapiens) (UniProt P05177); assay: Cytochrome P450 Family 1 Subfamily A Member 2 (CYP1A2) small molecule antagonists: luciferase reporter qHTS assay (AID 1671199)
Method in brief: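 Inhibition of CYP1A2 conversion of proluciferin to luciferin, detected by luminescence. Reaction run 1 h at room temperature with NADPH regeneration after brief compound preincubation.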

[2] = biological target: Cytochrome P450 2C9 (Homo sapiens) (UniProt P11712); assay: Cytochrome P450 Family 2 Subfamily C Member 9 (CYP2C9) small molecule antagonists: luciferase reporter qHTS assay (AID 1671198)
Method in brief: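 Enzyme-substrate mix preincubated with compound 10 min at room temperature; reaction started with NADPH regeneration solution, 1 h 37C. Luminescent luciferin product read after 20 min detection reagent.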

[3] = biological target: Voltage-gated inwardly rectifying potassium channel KCNH2 (Homo sapiens) (UniProt Q12809); assay: Human Ether-a-go-go-Related Gene (hERG) channel small molecule antagonists: fluorescence cell-based qHTS assay (AID 1671200)
Method in brief: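 Thallium flux as potassium surrogate: FluxOR II dye loaded 1 h at room temperature into hERG-expressing U2OS cells, then stimulus buffer added after 10 min. Kinetic 480 nm excitation/540 nm emission read, 2 min.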

[4] = biological target: Cytochrome P450 3A4 (Homo sapiens) (UniProt P08684); assay: Cytochrome P450 Family 3 Subfamily A Member 4 (CYP3A4) small molecule antagonists: luciferase reporter qHTS assay (AID 1671201)
Method in brief: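 Recombinant human CYP3A4 converts a proluciferin substrate to luciferin over 1 h at room temperature after NADPH regeneration solution is added (compound preincubated 10 min); detection reagent stops reaction, luminescence read 20 min later as relative units.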
Note: nearly all actives have a fitted effect of over 50% in size.
Potency is the fitted concentration of half-maximal effect; tags give direction and shape of the fitted curve.

UniProt Q12809, sequence (Q12809 whole entry, looked up): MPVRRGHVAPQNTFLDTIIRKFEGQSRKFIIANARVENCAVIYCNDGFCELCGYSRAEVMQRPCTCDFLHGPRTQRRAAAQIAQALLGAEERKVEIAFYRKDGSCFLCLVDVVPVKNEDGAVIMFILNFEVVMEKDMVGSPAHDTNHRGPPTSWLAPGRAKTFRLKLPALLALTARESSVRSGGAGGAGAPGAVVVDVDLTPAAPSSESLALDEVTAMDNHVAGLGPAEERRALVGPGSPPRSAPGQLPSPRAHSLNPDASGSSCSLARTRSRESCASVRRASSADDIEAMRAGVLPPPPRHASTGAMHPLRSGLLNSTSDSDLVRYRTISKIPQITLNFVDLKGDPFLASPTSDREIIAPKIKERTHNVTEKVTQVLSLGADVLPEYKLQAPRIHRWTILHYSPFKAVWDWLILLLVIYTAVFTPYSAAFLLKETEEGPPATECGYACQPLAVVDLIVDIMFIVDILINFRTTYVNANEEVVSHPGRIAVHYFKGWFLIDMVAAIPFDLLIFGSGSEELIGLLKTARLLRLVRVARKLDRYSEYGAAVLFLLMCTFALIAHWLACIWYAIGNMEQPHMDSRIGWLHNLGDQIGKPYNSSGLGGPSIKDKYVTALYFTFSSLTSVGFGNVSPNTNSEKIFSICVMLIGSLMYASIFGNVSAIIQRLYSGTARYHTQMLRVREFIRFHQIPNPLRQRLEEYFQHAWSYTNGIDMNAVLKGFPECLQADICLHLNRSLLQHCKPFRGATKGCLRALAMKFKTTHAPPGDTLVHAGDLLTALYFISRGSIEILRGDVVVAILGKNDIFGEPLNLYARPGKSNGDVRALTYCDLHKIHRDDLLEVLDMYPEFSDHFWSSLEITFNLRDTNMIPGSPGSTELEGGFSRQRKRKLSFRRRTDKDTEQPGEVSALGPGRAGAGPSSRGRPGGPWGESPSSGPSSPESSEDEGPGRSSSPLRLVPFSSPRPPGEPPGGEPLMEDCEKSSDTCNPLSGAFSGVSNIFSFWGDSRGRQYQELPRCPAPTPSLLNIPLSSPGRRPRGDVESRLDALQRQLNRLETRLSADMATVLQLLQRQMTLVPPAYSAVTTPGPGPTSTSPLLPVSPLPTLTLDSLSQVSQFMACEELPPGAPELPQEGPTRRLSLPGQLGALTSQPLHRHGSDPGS
UniProt P11712, sequence (P11712 whole entry, looked up): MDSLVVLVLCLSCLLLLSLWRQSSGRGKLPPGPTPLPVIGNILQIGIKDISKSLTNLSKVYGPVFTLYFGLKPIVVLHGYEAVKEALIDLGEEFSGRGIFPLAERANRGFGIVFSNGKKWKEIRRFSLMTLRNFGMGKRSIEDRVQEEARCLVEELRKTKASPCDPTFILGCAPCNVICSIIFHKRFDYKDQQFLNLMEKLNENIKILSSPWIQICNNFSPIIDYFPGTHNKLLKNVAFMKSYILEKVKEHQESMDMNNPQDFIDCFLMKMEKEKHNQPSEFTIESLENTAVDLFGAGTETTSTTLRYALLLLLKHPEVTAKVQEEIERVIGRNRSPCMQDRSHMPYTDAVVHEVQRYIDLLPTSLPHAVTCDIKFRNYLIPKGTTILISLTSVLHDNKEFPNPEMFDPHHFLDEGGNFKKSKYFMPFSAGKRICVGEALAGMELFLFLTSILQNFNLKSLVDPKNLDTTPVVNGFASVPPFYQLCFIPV
UniProt P05177, sequence (P05177 whole entry, looked up): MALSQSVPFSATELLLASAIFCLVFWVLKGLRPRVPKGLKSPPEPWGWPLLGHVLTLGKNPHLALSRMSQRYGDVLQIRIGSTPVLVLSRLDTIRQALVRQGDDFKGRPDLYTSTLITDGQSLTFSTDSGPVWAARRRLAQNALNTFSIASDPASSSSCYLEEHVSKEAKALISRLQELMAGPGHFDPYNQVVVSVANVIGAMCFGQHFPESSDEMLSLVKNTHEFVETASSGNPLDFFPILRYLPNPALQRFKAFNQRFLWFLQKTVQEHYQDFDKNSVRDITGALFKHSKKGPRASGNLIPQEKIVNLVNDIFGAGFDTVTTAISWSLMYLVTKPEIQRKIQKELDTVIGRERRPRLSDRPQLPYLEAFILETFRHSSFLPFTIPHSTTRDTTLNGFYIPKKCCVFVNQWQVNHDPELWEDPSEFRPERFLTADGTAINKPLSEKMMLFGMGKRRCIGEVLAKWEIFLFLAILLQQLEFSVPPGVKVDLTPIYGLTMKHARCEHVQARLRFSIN
UniProt P08684, sequence (P08684 whole entry, looked up): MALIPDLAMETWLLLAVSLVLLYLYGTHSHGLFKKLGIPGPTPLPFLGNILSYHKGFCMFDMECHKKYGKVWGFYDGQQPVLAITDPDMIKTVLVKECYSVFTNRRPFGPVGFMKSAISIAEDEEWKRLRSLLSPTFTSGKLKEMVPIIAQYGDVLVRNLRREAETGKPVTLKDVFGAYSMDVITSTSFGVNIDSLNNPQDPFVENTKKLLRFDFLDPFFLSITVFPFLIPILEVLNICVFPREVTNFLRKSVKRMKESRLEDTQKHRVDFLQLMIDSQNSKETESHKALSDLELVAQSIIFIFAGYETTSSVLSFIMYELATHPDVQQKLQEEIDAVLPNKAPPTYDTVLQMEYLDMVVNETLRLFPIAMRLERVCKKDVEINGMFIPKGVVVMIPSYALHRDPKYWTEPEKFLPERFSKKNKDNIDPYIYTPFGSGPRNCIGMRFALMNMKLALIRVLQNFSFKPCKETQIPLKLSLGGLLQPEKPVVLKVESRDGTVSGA

Structure (SMILES) | Potency [1] | Potency [2] | Potency [3] | Potency [4]
CCCCCCCCCCCCCCC(Br)C(=O)O (stereo unspecified) | inconclusive: 35.6 µM [inhibitor, partial curve] |  |  | 
N#Cc1c2ccccc2cc2ccccc12 | active: 0.2 µM | inconclusive: 10 µM [inhibitor, partial curve] | inactive | 
O=S1OC[C@@H]2[C@H](CO1)[C@]1(Cl)C(Cl)=C(Cl)[C@@]2(Cl)C1(Cl)Cl (stereo partly specified) |  | active: 39.9 µM | inconclusive: 21.9 µM [inhibitor, partial curve] | 
COc1cc(OC)c(OC)cc1C=O | active: 11 µM | inconclusive: 54.7 µM [inhibitor, partial curve, poor fit] |  | 
N#CC(C#N)=NNc1cccc(Cl)c1 | active: 8.94 µM | active: 8.94 µM | inconclusive: 54.9 µM [inhibitor, single point] | 
c1ccc(P(c2ccccc2)c2ccccc2)cc1 | inactive | active: 12.9 µM and active: 7.96 µM | inconclusive: 49.9 µM [inhibitor, partial curve, poor fit] and inconclusive: 19.5 µM [inhibitor, partial curve] | 
ClC1=C(Cl)[C@]2(Cl)[C@H]3[C@H]([C@@H]4C=C[C@H]3C4)[C@@]1(Cl)C2(Cl)Cl | inactive | inconclusive: 20 µM [inhibitor, full curve] | inconclusive: 21.8 µM [inhibitor, partial curve] and inconclusive: 21.9 µM [inhibitor, partial curve] | 
c1ccc2c(c1)cc1ccc3cccc4ccc2c1c34 | active: 0.363 µM | inconclusive: 40.7 µM [inhibitor, partial curve, poor fit] |  | 
NC1CCC(CC2CCC(N)CC2)CC1 (stereo unspecified) | inactive | inconclusive: 27.8 µM [inhibitor, partial curve, poor fit] |  | 
CC1(C)[C@H](C(=O)O[C@H](C#N)c2cccc(Oc3ccccc3)c2)[C@@H]1/C=C(\Cl)C(F)(F)F | inconclusive: 23.3 µM [inhibitor, partial curve] and inconclusive: 35.6 µM [inhibitor, partial curve] | active: 8.28 µM and active: 7.96 µM |  | 
CSCCCN=C=S |  | inconclusive: 39.9 µM [inhibitor, partial curve] | inconclusive: 34.7 µM [inhibitor, partial curve] | 
CCCN(CCC)c1c([N+](=O)[O-])cc(C(F)(F)F)cc1[N+](=O)[O-] | inconclusive: 35.5 µM [inhibitor, partial curve] | inconclusive: 31.7 µM [inhibitor] and active: 22.4 µM | inconclusive: 21.8 µM [inhibitor, partial curve] | 
Cc1cc(C)c(C(=O)P(=O)(C(=O)c2c(C)cc(C)cc2C)c2ccccc2)c(C)c1 | active: 71 µM | active: 35.6 µM |  | 
C=CC1(C)OC(=O)N(c2cc(Cl)cc(Cl)c2)C1=O (stereo unspecified) | active: 5.61 µM and active: 6.33 µM | inconclusive: 56.1 µM [inhibitor, partial curve] | inconclusive: 54.6 µM [inhibitor, single point] and inconclusive: 54.9 µM [inhibitor, partial curve, poor fit] | 
Brc1ccc(Oc2ccccc2)cc1 | inconclusive: 32.5 µM [inhibitor, partial curve] and active: 25.2 µM | inconclusive: 64.9 µM [inhibitor, partial curve, poor fit] and inconclusive: 35.6 µM [inhibitor, partial curve] | inactive and inconclusive: 17.4 µM [inhibitor, full curve] | 
c1cc(OCC2CO2)ccc1Cc1ccc(OCC2CO2)cc1 (stereo unspecified) | inconclusive: 71.3 µM [inhibitor, partial curve] | active: 35.7 µM and active: 28.3 µM |  | inconclusive: 16 µM [inhibitor, partial curve] and inconclusive: 31.7 µM [inhibitor, partial curve]
CC(C)[C@H](C(=O)O[C@H](C#N)c1cccc(Oc2ccccc2)c1)c1ccc(Cl)cc1 | inconclusive: 28.2 µM [inhibitor, full curve] | active: 5.63 µM |  | 
